This note sets out measurements from ChEMBL document CHEMBL4888484, “Replenishing the malaria drug discovery pipeline: Screening and hit evaluation of the MMV Hit Generation Library 1 (HGL1) against asexual blood stage Plasmodium falciparum ,using a nano luciferase reporter read-out” (2022).

The campaign covered roughly 150,000 compounds. About 540 (0.36%) showed an effect of 50% or more. The list shows a part of the results.

For this experiment, the system named is Plasmodium falciparum. The experiment can be described thus: Primary screen in NF54 nanoGlo assay, in single point, at 2uM, 72h; a lower Z score goes with more inhibition. Type of experiment: functional, Erythrocyte. The settings on record: timepoint 72 hour.
On to `COc1cccc(C(=O)N2CCC[C@@](F)(c3nc(C4CC4)no3)C2)c1`, for which the “% Inhibition” value is -15% and the Z score turned out to be 1.96.

Take `CCc1cnc(C)nc1N1CC[C@H](C(C)(C)O)C1`: the “% Inhibition” value is recorded as -9% and the Z score worked out at 1.15.

For `Cc1nc(CNS(=O)(=O)c2cccc(C(=O)N3CCCC3)c2)sc1C`, the “% Inhibition” value is recorded as -2% and the Z score is recorded as 0.32.

`CCOC[C@H]1CCN(C(=O)Nc2ccncc2F)C1`: the “% Inhibition” value is reported as -8% and the Z score was 1.14.

`Cc1nn(C)cc1[C@H](C)NC(=O)c1cc(-c2ccccc2)on1`: the “% Inhibition” value is listed as 34% and the Z score is on record as -4.57.

For `CS(=O)(=O)c1ccc(NC(=O)c2ccnc(OCC3CC3)c2)cc1`, the “% Inhibition” value was -14% and the Z score turned out to be 2.65.

With `CC[C@H](C)N(Cc1ccccc1Cl)C(=O)c1cc(C)nc(N)n1`, the “% Inhibition” value is reported as 16% and the Z score was -1.98.

For `CCN(CC)CC(=O)N1CCN(C(=O)c2cc3ccccn3c2)CC1`, the “% Inhibition” value was 0% and the Z score worked out at 0.04.

Regarding `CNC(=O)[C@@H](C)CN(C)Cc1cnc2ccc(Br)cn12`, the “% Inhibition” value is -6% and the Z score came out at 0.72.

Take `CN1C(=O)N(c2ccc(-n3cccn3)nc2)C(=O)C12CCCCC2`: the “% Inhibition” value is given as -17% and the Z score was found to be 1.84.

Take `CCCn1ncnc1[C@H](C)NC(=O)c1ccn(C)c1C`: the “% Inhibition” value was 15% and the Z score was -1.99.

Take `CC(C)n1ccc(C(=O)N[C@@H](C)c2cn[nH]c2)n1`: the “% Inhibition” value is given as 9% and the Z score is given as -1.18.

As to `CC(C)Cn1c(=O)c(N2CCN(C(=O)c3c[nH]c4ccccc34)CC2)nc2ccncc21`, the “% Inhibition” value was 1% and the Z score is given as -0.05.

Regarding `CC(C)C[C@H](Nc1nccc(C(F)(F)F)n1)c1ncnn1C`, the “% Inhibition” value is -22% and the Z score was 2.54.

Take `O=C(c1c[nH]nn1)N1CCN(CC(=O)N2CCCc3ccccc32)CC1`: the “% Inhibition” value is on record as -5% and the Z score is on record as 0.99.

As to `COc1cc(CN2CCC[C@H]2c2cccn2C)cc(OC)c1OC`, the “% Inhibition” value is reported as 0% and the Z score was 0.04.

`C[C@@H](CNC(=O)Nc1ncc(C2CCCCC2)s1)c1nccs1`: the “% Inhibition” value is reported as -23% and the Z score stood at 2.3.

As for `Cc1n[nH]c([C@@H]2CN(Cc3ccoc3C)CCO2)n1`, the “% Inhibition” value was -6% and the Z score is listed as 0.66.

For `CCCCn1c(N)c(N(Cc2ccccc2)C(=O)CN2CCn3cccc3[C@@H]2C)c(=O)[nH]c1=O`, the “% Inhibition” value is given as 1% and the Z score was -0.12.

As to `CCn1cnnc1NC(=O)c1cc(C(F)(F)F)c[nH]c1=O`, the “% Inhibition” value was -11% and the Z score is reported as 1.48.

Regarding `COc1nccc(N[C@H]2CCOC[C@@H]2OCC2CC2)c1C#N`, the “% Inhibition” value is on record as -1% and the Z score is on record as 0.16.

As to `Cc1cccc(C)c1OCc1cc(C(=O)N[C@H]2CC[C@H](O)CC2)no1`, the “% Inhibition” value is given as -4% and the Z score was 0.8.

Turning to `O=C(Nc1nc2c(s1)CCCC2)c1cc(-n2ccnc2)ccn1`, the “% Inhibition” value is given as -10% and the Z score was found to be 1.61.

On to `CN1CC[C@H]2CC(=O)Nc3cc(C(F)(F)F)ccc3OCC[C@H]2C1`, for which the “% Inhibition” value was found to be 7% and the Z score is listed as -0.86.

Consider `Cc1nc(C)c(C(=O)N2CC[C@H](CCOc3ccccc3)C2)s1`, for which the “% Inhibition” value stood at 2% and the Z score was -0.4.

On to `CC(C)C[C@@H](CN(C)C)NC(=O)c1snnc1C1CC1`, for which the “% Inhibition” value was -9% and the Z score is 1.74.

Take `Cc1ccc([C@H](CNC(=O)COc2ccc(Cl)cc2)N2CCC(C)CC2)o1`: the “% Inhibition” value came to 2% and the Z score is recorded as -0.39.

Regarding `O=c1nc2n(c3ncccc13)CCCCC2`, the “% Inhibition” value was 3% and the Z score is reported as -0.42.

As to `COc1cccc2cc(C(=O)N3CCC(COCc4ccccc4)CC3)oc12`, the “% Inhibition” value is -8% and the Z score turned out to be 1.11.

For the compound `O=C(Cc1ccsc1)Nc1nncs1`, the “% Inhibition” value is given as -11% and the Z score is 1.18.

Take `C[C@]12C(=O)N(Cc3ccncc3)CC(=O)N1CCc1c2[nH]c2ccccc12`: the “% Inhibition” value is -7% and the Z score is recorded as 0.86.

Regarding `C[C@@H](c1ccccc1)N(C)C(=O)NCCNC(=O)c1ccn[nH]1`, the “% Inhibition” value is reported as -4% and the Z score worked out at 0.49.

Take `CN(CCc1nccs1)S(=O)(=O)c1cnn(C)c1`: the “% Inhibition” value is listed as -8% and the Z score was 0.97.

For the compound `O=C(c1ccc(N2CCCN(Cc3ccc(Cl)cc3)C2=O)cc1)N1CCCC1`, the “% Inhibition” value was -4% and the Z score is 0.68.

With `CN(C)C1(CNC(=O)COc2cccc(C(N)=O)c2)CCCCCC1`, the “% Inhibition” value is reported as -34% and the Z score is listed as 3.95.

Take `Cn1cc([C@H]2NC(=O)CN2Cc2ccccc2)c(=O)n(C)c1=O`: the “% Inhibition” value stood at 0% and the Z score is reported as 0.02.

Consider `CC(C)N(C)C(=O)c1ccc(Cl)c(NCCCO)c1`, for which the “% Inhibition” value was -8% and the Z score is listed as 0.76.

As to `Cc1cc(NC(=O)CCn2ncc3cn(-c4ccccc4)nc3c2=O)no1`, the “% Inhibition” value was -23% and the Z score turned out to be 3.2.

With `CCn1nccc1C(=O)N1Cc2cc(CN3CCCC3)ccc2OC[C@@H]1C`, the “% Inhibition” value was -1% and the Z score is given as 0.22.

For `COc1ccccc1CC(=O)Nc1cncnc1`, the “% Inhibition” value is recorded as -21% and the Z score is on record as 1.87.

Take `CC(C)c1nc(CCNc2cncc(C(=O)N(C)C)n2)no1`: the “% Inhibition” value is listed as -7% and the Z score is reported as 1.22.

For `CC(C)OCCNC(=O)[C@@H]1CC[C@H](NC(=O)c2csc3c2CCCC3)C1`, the “% Inhibition” value is -19% and the Z score was found to be 2.4.

As usually defined, the % Inhibition is the drop in the measured response relative to a control, in per cent.
